Key:
Conditions in all cases: both partners purified
[1] = target: T1, mouse KEAP1 full-length (1–624 a.a.), C151S&Y85F (mouse, UniProt Q9Z2X8 1-624, Y85F | C151S); assay: pull-down; KEAP1 (1 μM) pre-incubated 30 min at 20 °C with 1, 3 or 10 μM CDDO-Im, then 6xHis-CUL3^NTD (1 μM), Ni-NTA magnetic agarose beads; 50 mM Tris-HCl, 300 mM NaCl, 20 mM imidazole, 10 mM GSH, pH 8.0
T1 construct: KEAP1, mouse, full length, residues 1-624, with C151S and Y85F; also called KEAP1^C151S&Y85F; KEAP1^Y85F&C151S; source: bacteria, purified (HisPur Ni-NTA, HiTrap Q XL, TEV digestion, Superdex 200)

[2] = target: T2, mouse KEAP1 full-length (1–624 a.a.), WT (mouse, UniProt Q9Z2X8 1-624); assay: pull-down; KEAP1 (1 μM) pre-incubated 30 min at 20 °C with 1, 3 or 10 μM CDDO, then 6xHis-CUL3^NTD (1 μM), Ni-NTA magnetic agarose beads; 50 mM Tris-HCl, 300 mM NaCl, 20 mM imidazole, 10 mM GSH, pH 8.0
T2 construct: KEAP1, mouse, full length, residues 1-624; In some pull-downs it was pre-incubated with CDDO compounds (see the assays); also called KEAP1^WT; full-length KEAP1; source: bacteria, purified (HisPur Ni-NTA, HiTrap Q XL, TEV digestion, Superdex 200)

[3] = target: T3, mouse KEAP1 full-length (1–624 a.a.), C151S (mouse, UniProt Q9Z2X8 1-624, C151S); assay: as above
T3 construct: KEAP1, mouse, full length, residues 1-624, with C151S; also called KEAP1^C151S; source: bacteria, purified (HisPur Ni-NTA, HiTrap Q XL, TEV digestion, Superdex 200)

[4] = target: T4, mouse KEAP1 full-length (1–624 a.a.), Y85F (mouse, UniProt Q9Z2X8 1-624, Y85F); assay: as above
T4 construct: KEAP1, mouse, full length, residues 1-624, with Y85F; also called KEAP1^Y85F; source: bacteria, purified (HisPur Ni-NTA, HiTrap Q XL, TEV digestion, Superdex 200)

Measured: binding result

B1: 6xHis-tagged N-terminus domain ([…] a.a., I342R/L346D) of mouse CUL3 (domain or fragment)
chain: not shown
notes: CUL3 (Cullin 3), mouse, N-terminal domain, […], with I342R and L346D; also called CUL3^NTD; His-CUL3^NTD; source: bacteria, purified (HisPur Ni-NTA, HiTrap Q XL, Superdex 200)
binds: [1] | [2] | [3] | [4]

— article PMC12550724, “Bidirectional regulation of KEAP1 BTB domain-based sensor activity” (Redox Biology, 2025)
